B1: GPR68, Q15743 (parent)
chain: MGNITADNSSMSCTIDHTIHQTLAPVVYVTVLVVGFPANCLSLYFGYLQIKARNELGVYLCNLTVADLFYICSLPFWLQYVLQHDNWSHGDLSCQVCGILLYENIYISVGFLCCISVDRYLAVAHPFRFHQFRTLKAAVGVSVVIWAKELLTSIYFLMHEEVIEDENQHRVCFEHYPIQAWQRAINYYRFLVGFLFPICLLLASYQGILRAVRRSHGTQKSRKDQIQRLVLSTVVIFLACFLPYHVLLLVRSVWEASCDFAKGVFNAYHFSLLLTSFNCVADPVLYCFVSETTHRDLARLRGACLAFLTCSRTGRAREAYPLGAPEASGKSGAQGEEPELLTKLHPAFQTPNSPGSGGFPTGRLA

Series [1] covers variants of B1. The experiment in a line: cAMP reporter score (Enrich2 score, wild type = 0); higher = more signal; HEK293T, FACS bins.
Series [2] covers variants of B1. The experiment in a line: surface expression score (Enrich2 score, wild type = 0); higher = more signal; HEK293T, FACS bins.

Scores whose standard error is large were omitted. Two further conditions of the source, in which the scores hardly spread, are not listed. Read del as a deletion of the residues named and ins as an insertion between two positions. For some of these results: The concentration of ogerin is not given here.

In the case of S9_S10insG, the cAMP reporter score in series [1] (pH 5.5) was 0.084; in series [1] (pH 6), -0.52; in series [1] (pH 6, modulator: ogerin), 0.107; in series [1] (pH 6.5, modulator: ogerin) it was -0.667. For the same variant, the surface expression score in series [2] was -0.235.

Take A6S: the cAMP reporter score is -0.992 in series [1] (pH 5.5); -0.277 in series [1] (pH 6); -0.925 in series [1] (pH 6, modulator: ogerin); -0.828 in series [1] (pH 6.5, modulator: ogerin). Also, in series [2], the surface expression score was -0.949.

Take A6T: the cAMP reporter score was 1.63 in series [1] (pH 5.5); 1.86 in series [1] (pH 6); 0.523 in series [1] (pH 6, modulator: ogerin). For the same variant, the surface expression score in series [2] was 1.83.

Consider A6E, for which the cAMP reporter score was 0.246 in series [1] (pH 5.5); 0.258 in series [1] (pH 6); -0.044 in series [1] (pH 6, modulator: ogerin); 0.435 in series [1] (pH 6.5, modulator: ogerin). For the same variant, the surface expression score in series [2] was found to be 0.045.

Consider A6I, for which the cAMP reporter score in series [1] (pH 5.5) was 0.177; in series [1] (pH 6), 0.437; in series [1] (pH 6, modulator: ogerin), -0.223; in series [1] (pH 6.5, modulator: ogerin), -0.498. Also, the surface expression score in series [2] is -0.773.

On to A6N, for which the cAMP reporter score in series [1] (pH 5.5) is -0.475; in series [1] (pH 6), 0.643; in series [1] (pH 6, modulator: ogerin), 0.049; in series [1] (pH 6.5, modulator: ogerin) it was -0.652. The surface expression score in series [2] is -0.072.

With A6K, the cAMP reporter score was 0.471 in series [1] (pH 5.5); 0.625 in series [1] (pH 6, modulator: ogerin); 0.374 in series [1] (pH 6.5, modulator: ogerin). For the same variant, the surface expression score in series [2] was 0.52.

For A6Y, the cAMP reporter score in series [1] (pH 5.5) is -0.331; in series [1] (pH 6), -0.163; in series [1] (pH 6, modulator: ogerin), -0.032; in series [1] (pH 6.5, modulator: ogerin), 0.052. Besides, the surface expression score in series [2] is -0.731.

For the variant A6H, the cAMP reporter score in series [1] (pH 5.5) is 0.11; in series [1] (pH 6), -0.082; in series [1] (pH 6, modulator: ogerin), 0.803; in series [1] (pH 6.5, modulator: ogerin), 0.293. In addition, the surface expression score in series [2] came to 1.49.

As to A6L, the cAMP reporter score in series [1] (pH 5.5) was -0.342; in series [1] (pH 6), 0.185; in series [1] (pH 6, modulator: ogerin), -0.358; in series [1] (pH 6.5, modulator: ogerin), 0.004. Also, the surface expression score in series [2] was -0.692.

Consider A6V, for which the cAMP reporter score in series [1] (pH 5.5) was 0.769; in series [1] (pH 6), 0.096; in series [1] (pH 6, modulator: ogerin) it was 0.676; in series [1] (pH 6.5, modulator: ogerin) it was -0.365. Moreover, the surface expression score in series [2] worked out at 0.798.

Take A6G: the cAMP reporter score in series [1] (pH 5.5) was -0.772; in series [1] (pH 6), -0.527; in series [1] (pH 6, modulator: ogerin), -0.69; in series [1] (pH 6.5, modulator: ogerin) it was -0.436. Further, the surface expression score in series [2] is -1.23.

Consider A6W, for which the cAMP reporter score in series [1] (pH 5.5) is 0.827; in series [1] (pH 6), 0.457; in series [1] (pH 6, modulator: ogerin) it was 0.646; in series [1] (pH 6.5, modulator: ogerin), 0.44. The surface expression score in series [2] is 0.756.

With A6Q, the cAMP reporter score was found to be 0.114 in series [1] (pH 5.5); 0.37 in series [1] (pH 6); 0.166 in series [1] (pH 6, modulator: ogerin); 0.402 in series [1] (pH 6.5, modulator: ogerin). For the same variant, the surface expression score in series [2] was found to be 0.041.

A6R: the cAMP reporter score in series [1] (pH 5.5) came to 0.463; in series [1] (pH 6), 1; in series [1] (pH 6, modulator: ogerin), 0.612; in series [1] (pH 6.5, modulator: ogerin) it was 0.695. Moreover, the surface expression score in series [2] was determined as 0.394.

Turning to A6M, the cAMP reporter score in series [1] (pH 5.5) is 0.01; in series [1] (pH 6) it was -0.045; in series [1] (pH 6, modulator: ogerin), 0.182; in series [1] (pH 6.5, modulator: ogerin), -0.219. Further, the surface expression score in series [2] is -0.859.

As for A6F, the cAMP reporter score in series [1] (pH 5.5) is -0.43; in series [1] (pH 6), 0.32; in series [1] (pH 6, modulator: ogerin), -0.401; in series [1] (pH 6.5, modulator: ogerin), -0.082. For the same variant, the surface expression score in series [2] is -0.717.

On to A6C, for which the cAMP reporter score in series [1] (pH 5.5) was 0.641; in series [1] (pH 6), -0.8; in series [1] (pH 6, modulator: ogerin), 0.598; in series [1] (pH 6.5, modulator: ogerin), -0.577. The surface expression score in series [2] is -0.481.

In the case of A6P, the cAMP reporter score is 0.178 in series [1] (pH 5.5); 0.023 in series [1] (pH 6); -0.029 in series [1] (pH 6, modulator: ogerin); -0.482 in series [1] (pH 6.5, modulator: ogerin). The surface expression score in series [2] is -0.439.

In the case of A6D, the cAMP reporter score is -0.229 in series [1] (pH 5.5); 0.085 in series [1] (pH 6); 0.115 in series [1] (pH 6, modulator: ogerin); 0.06 in series [1] (pH 6.5, modulator: ogerin). Besides, in series [2], the surface expression score was -0.036.

In the case of I4_T5insGS, the cAMP reporter score in series [1] (pH 5.5) is -0.606; in series [1] (pH 6) it was -0.196; in series [1] (pH 6, modulator: ogerin), -0.836; in series [1] (pH 6.5, modulator: ogerin), -0.745. Moreover, in series [2], the surface expression score was -1.05.

With S9del, the cAMP reporter score in series [1] (pH 5.5) was determined as 0.716; in series [1] (pH 6), 0.518; in series [1] (pH 6, modulator: ogerin) it was 0.346; in series [1] (pH 6.5, modulator: ogerin), 0.527. Besides, the surface expression score in series [2] is -0.24.

For the variant N8_S9insGS, the cAMP reporter score in series [1] (pH 5.5) was -0.462; in series [1] (pH 6), 0.061; in series [1] (pH 6, modulator: ogerin), -0.383; in series [1] (pH 6.5, modulator: ogerin), 0.465. The surface expression score in series [2] is -0.636.

Consider G2_N3del, for which the cAMP reporter score in series [1] (pH 5.5) was 0.874; in series [1] (pH 6), -0.167; in series [1] (pH 6, modulator: ogerin) it was 0.579; in series [1] (pH 6.5, modulator: ogerin) it was -0.282. Also, the surface expression score in series [2] was determined as 0.177.

On to N3del, for which the cAMP reporter score in series [1] (pH 5.5) was 0.542; in series [1] (pH 6, modulator: ogerin) it was -0.293. Moreover, the surface expression score in series [2] is -0.368.

Turning to G2_N3insG, the cAMP reporter score in series [1] (pH 5.5) turned out to be 0.793; in series [1] (pH 6) it was 0.634; in series [1] (pH 6, modulator: ogerin), 0.538; in series [1] (pH 6.5, modulator: ogerin) it was 0.947. The surface expression score in series [2] is 0.614.

Consider S9_S10insGS, for which the cAMP reporter score in series [1] (pH 5.5) was -0.296; in series [1] (pH 6), -0.862; in series [1] (pH 6, modulator: ogerin), -0.212; in series [1] (pH 6.5, modulator: ogerin) it was -1.1. Besides, the surface expression score in series [2] is -1.35.

In the case of M11_S12insGSG, the cAMP reporter score was 0.69 in series [1] (pH 5.5); -0.825 in series [1] (pH 6); 0.552 in series [1] (pH 6, modulator: ogerin); 0.626 in series [1] (pH 6.5, modulator: ogerin). The surface expression score in series [2] was found to be 0.742.

As for N3_T5del, the cAMP reporter score in series [1] (pH 5.5) is 0.261; in series [1] (pH 6) it was -0.001; in series [1] (pH 6, modulator: ogerin) it was 0.346; in series [1] (pH 6.5, modulator: ogerin), 0.18. Besides, the surface expression score in series [2] is -0.555.

Turning to A6_N8del, the cAMP reporter score was -0.022 in series [1] (pH 5.5); -0.231 in series [1] (pH 6); -0.394 in series [1] (pH 6, modulator: ogerin); -0.311 in series [1] (pH 6.5, modulator: ogerin). Further, the surface expression score in series [2] was -0.833.

With N3_I4del, the cAMP reporter score in series [1] (pH 5.5) was 0.067; in series [1] (pH 6) it was -0.717; in series [1] (pH 6, modulator: ogerin) it was 0.626; in series [1] (pH 6.5, modulator: ogerin) it was 0.277. The surface expression score in series [2] is -0.078.
